# The other results are listed elsewhere or left out. At the low end of the ranking the order means little.
# Target: GST-SBP-SLBP (stem-loop binding protein) (UniProt Q14493)
# Test: targeted RNA Bind-n-Seq;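 note: DESeq read counts versus GST-SBP nonspecific binding control pulldown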
# Conditions: RBNS binding buffer: 25 mM Tris pH 7.5, 150 mM KCl, 3 mM MgCl2, 0.1% Tween, 0.5 mg/mL BSA, 1 mM DTT; 27 nM protein, 750 pM RNA pool; temperature not stated; high values mean tight binding
row,Sequence,binding signal (log2 fold change)
1,GGUCACGUCUCAAUCAACUCAUUCCCCAGGGAAAACCCUGGUAUUUUCAACAGCUCGCAGUCAAG,0.19
2,GGUCACGUCUCAAUCAACUCUUUUUCCAGGGAAAACCCUGGUUUUUUCAACAGCUCGCAGUCAAG,-0.139
3,GGUCACGUCUCAAUCAACUCAUUAGAGGGGGGGAAAACCCCUUUGCCCUCAACUUCAACAGCUCGCAGUCAAG,-0.542
4,GGUCACGUCUCAAUCAACUCUACUCCCAGGGAAAACCCUGGUUUACUCAACAGCUCGCAGUCAAG,0.104
5,GGUCACGUCUCAAUCAACUCAACGCCAGGAGUUUACUCCUGUUAUUUCAACAGCUCGCAGUCAAG,0.0856
6,GGUCACGUCUCAAUCAACUCAUCUCCAGGAGUUUACUCCUGUUAUCUCAACAGCUCGCAGUCAAG,-0.0937
7,GGUCACGUCUCAAUCAACUCUUUCCCAGGAGUUUACUCCUGUAUUCUCAACAGCUCGCAGUCAAG,-0.00238
8,GGUCACGUCUCAAUCAACUCUUCCUCAGGAGUUUUCUCCUGCAUUCUCAACAGCUCGCAGUCAAG,0.00296
9,GGUCACGUCUCAAUCAACUCAUUCCCAGGAGUUUGCUCCUGCUUUCUCAACAGCUCGCAGUCAAG,0.132
10,GGUCACGUCUCAAUCAACUCCUCAGAGGGGGGGAAAACCCCUUUACCCUCACAUUCAACAGCUCGCAGUCAAG,0.026
11,GGUCACGUCUCAAUCAACUCUACAGAGGGGGGGAAAACCCCUUUACCCUCACCAUCAACAGCUCGCAGUCAAG,-0.0333
12,GGUCACGUCUCAAUCAACUCUCUCGAGGGGGGGAAAACCCCUUUACCCUCAACAUCAACAGCUCGCAGUCAAG,0.151
13,GGUCACGUCUCAAUCAACUCUUUUCCAGGAGUUUUCUCCUGCAAUCUCAACAGCUCGCAGUCAAG,-0.0416
14,GGUCACGUCUCAAUCAACUCAUCUUCCAGGGAAAUCCCUGGCAUUCUCAACAGCUCGCAGUCAAG,-0.174
15,GGUCACGUCUCAAUCAACUCCCUAGAGGGGGGGAAAACCCCUUUGCCCUCAUUUUCAACAGCUCGCAGUCAAG,-0.0984
16,GGUCACGUCUCAAUCAACUCAACAGAGGGGGGGAAAACCCCUUUACCCUCACUAUCAACAGCUCGCAGUCAAG,0.12
17,GGUCACGUCUCAAUCAACUCCUUCGAGGGGGGGAAAACCCCUUUACCCUCUUUCUCAACAGCUCGCAGUCAAG,-0.286
18,GGUCACGUCUCAAUCAACUCAACUCCCAGGGAAAUCCCUGGCUUUCUCAACAGCUCGCAGUCAAG,0.0469
19,GGUCACGUCUCAAUCAACUCUAUUCCCAGGGAAAACCCUGGCAAAUUCAACAGCUCGCAGUCAAG,0.0588
20,GGUCACGUCUCAAUCAACUCAUUCUCAGGAGUUUUCUCCUGCAAAUUCAACAGCUCGCAGUCAAG,0.0846
21,GGUCACGUCUCAAUCAACUCACACGAGGGGGGGAAAACCCCUUUACCCUCAAAUUCAACAGCUCGCAGUCAAG,-0.436
22,GGUCACGUCUCAAUCAACUCGUCUUCAGGAGUUUUCUCCUGCAAUUUCAACAGCUCGCAGUCAAG,0.0409
23,GGUCACGUCUCAAUCAACUCCUACGAGGGGGGGAAAACCCCUUUACCCUCCAUAUCAACAGCUCGCAGUCAAG,-0.291
24,GGUCACGUCUCAAUCAACUCAACUCCAGGAGUUUACUCCUGUUAUUUCAACAGCUCGCAGUCAAG,-0.0725
25,GGUCACGUCUCAAUCAACUCCAUAGAGGGGGGGAAAACCCCUUUGCCCUCACCUUCAACAGCUCGCAGUCAAG,-0.11

row,Sequence,binding signal (log2 fold change)
1,GGUCACGUCUCAAUCAACUCAAUCUCCAGGGAAAUCCCUGGCUAUCUCAACAGCUCGCAGUCAAG,0.00171
2,GGUCACGUCUCAAUCAACUCUUCCCCAGGAGUUUUCUCCUGCAAACUCAACAGCUCGCAGUCAAG,0.0573
3,GGUCACGUCUCAAUCAACUCUUUCGAGGGGGGGAAAACCCCUUUACCCUCACAAUCAACAGCUCGCAGUCAAG,-0.0699
4,GGUCACGUCUCAAUCAACUCAUUAGAGGGGGGGAAAACCCCUUUGCCCUCAACCUCAACAGCUCGCAGUCAAG,-0.335
5,GGUCACGUCUCAAUCAACUCAACUCCAGGAGUUUACUCCUGUAUACUCAACAGCUCGCAGUCAAG,0.132
6,GGUCACGUCUCAAUCAACUCAUUCUCAGGAGUUUUCUCCUGUAAACUCAACAGCUCGCAGUCAAG,0.224
7,GGUCACGUCUCAAUCAACUCUUUCUCCAGGGAAACCCCUGGCAUUUUCAACAGCUCGCAGUCAAG,0.0231
8,GGUCACGUCUCAAUCAACUCUAUUCCAGGAGUUUUCUCCUGCAUUUUCAACAGCUCGCAGUCAAG,0.0267
9,GGUCACGUCUCAAUCAACUCAUCUCCCAGGGAAAACCCUGGUUUACUCAACAGCUCGCAGUCAAG,-0.277
10,GGUCACGUCUCAAUCAACUCCUACGAGGGGGGGAAAACCCCUUUACCCUCACCAUCAACAGCUCGCAGUCAAG,-0.134
11,GGUCACGUCUCAAUCAACUCAUCGUCCAGGGAAAACCCUGGCUUUUUCAACAGCUCGCAGUCAAG,-0.115
12,GGUCACGUCUCAAUCAACUCAUCCCCAGGAGUUUCCUCCUGUUUACUCAACAGCUCGCAGUCAAG,-0.0513
13,GGUCACGUCUCAAUCAACUCUUAAGAGGGGGGGAAAACCCCUUUACCCUCAAUAUCAACAGCUCGCAGUCAAG,-0.547
14,GGUCACGUCUCAAUCAACUCUUUCUCCAGGGAAAACCCUGGCAAACUCAACAGCUCGCAGUCAAG,-0.0271
15,GGUCACGUCUCAAUCAACUCCCUCGAGGGGGGGAAAACCCCUUUACCCUCAACUUCAACAGCUCGCAGUCAAG,0.191
16,GGUCACGUCUCAAUCAACUCUUACGAGGGGGGGAAAACCCCUUUGCCCUCACAAUCAACAGCUCGCAGUCAAG,-0.00764
17,GGUCACGUCUCAAUCAACUCAGUUUCAGGAGUUUUCUCCUGUAUUUUCAACAGCUCGCAGUCAAG,0.144
18,GGUCACGUCUCAAUCAACUCUAACGAGGGGGGGAAAACCCCUUUACCCUCCAAUUCAACAGCUCGCAGUCAAG,-0.167
19,GGUCACGUCUCAAUCAACUCCUAAGAGGGGGGGAAAACCCCUUUACCCUCCAUGUCAACAGCUCGCAGUCAAG,-0.269
20,GGUCACGUCUCAAUCAACUCCUUAGAGGGGGGGAAAACCCCUUUGCCCUCGAAUUCAACAGCUCGCAGUCAAG,0.379
21,GGUCACGUCUCAAUCAACUCCUUAGAGGGGGGGAAAACCCCUUUGCCCUCCAACUCAACAGCUCGCAGUCAAG,-0.171
22,GGUCACGUCUCAAUCAACUCGUCUUCAGGAGUUUCCUCCUGUUUUUUCAACAGCUCGCAGUCAAG,-0.0508
23,GGUCACGUCUCAAUCAACUCUUUCUCAGGAGUUUUCUCCUGCAAACUCAACAGCUCGCAGUCAAG,0.141
24,GGUCACGUCUCAAUCAACUCAUCCCCAGGAGUUUUCUCCUGCUUAGUCAACAGCUCGCAGUCAAG,-0.00922
25,GGUCACGUCUCAAUCAACUCAUCGCCCAGGGAAACCCCUGGUUAUCUCAACAGCUCGCAGUCAAG,-0.237

row,Sequence,binding signal (log2 fold change)
1,GGUCACGUCUCAAUCAACUCAUUCCCCAGGGAAAACCCUGGUUUUCUCAACAGCUCGCAGUCAAG,-0.0596
2,GGUCACGUCUCAAUCAACUCCUCGGAGGGGGGGAAAACCCCUUUACCCUCAUUCUCAACAGCUCGCAGUCAAG,0.168
3,GGUCACGUCUCAAUCAACUCUCUAGAGGGGGGGAAAACCCCUUUGCCCUCAUUCUCAACAGCUCGCAGUCAAG,-0.173
4,GGUCACGUCUCAAUCAACUCAUAGGAGGGGGGGAAAACCCCUUUACCCUCAUCAUCAACAGCUCGCAGUCAAG,0.315
5,GGUCACGUCUCAAUCAACUCUCUCGAGGGGGGGAAAACCCCUUUGCCCUCAACAUCAACAGCUCGCAGUCAAG,0.307
6,GGUCACGUCUCAAUCAACUCAUUUCCCAGGGAAAUCCCUGGCAUACUCAACAGCUCGCAGUCAAG,-0.0927
7,GGUCACGUCUCAAUCAACUCACACGAGGGGGGGAAAACCCCUUUACCCUCCAUAUCAACAGCUCGCAGUCAAG,0.0641
8,GGUCACGUCUCAAUCAACUCAAACGAGGGGGGGAAAACCCCUUUACCCUCACUCUCAACAGCUCGCAGUCAAG,-0.167
9,GGUCACGUCUCAAUCAACUCUUUCUCAGGAGUUUCCUCCUGCAAAUUCAACAGCUCGCAGUCAAG,-0.00476
10,GGUCACGUCUCAAUCAACUCUUCUUCCAGGGAAACCCCUGGCUAAUUCAACAGCUCGCAGUCAAG,-0.0759
11,GGUCACGUCUCAAUCAACUCUUUUUCCAGGGAAACCCCUGGCAUUCUCAACAGCUCGCAGUCAAG,0.0708
12,GGUCACGUCUCAAUCAACUCAUCUUCAGGAGUUUCCUCCUGCUAACUCAACAGCUCGCAGUCAAG,0.0808
13,GGUCACGUCUCAAUCAACUCUAAAGAGGGGGGGAAAACCCCUUUGCCCUCAAUAUCAACAGCUCGCAGUCAAG,0.133
14,GGUCACGUCUCAAUCAACUCAGUCUCAGGAGUUUUCUCCUGCUAAUUCAACAGCUCGCAGUCAAG,-0.103
15,GGUCACGUCUCAAUCAACUCUAUUUCAGGAGUUUUCUCCUGUUAAUUCAACAGCUCGCAGUCAAG,0.267
16,GGUCACGUCUCAAUCAACUCAAUCUCAGGAGUUUGCUCCUGUAUUUUCAACAGCUCGCAGUCAAG,0.0641
17,GGUCACGUCUCAAUCAACUCAACUUCCAGGGAAAUCCCUGGCAUAUUCAACAGCUCGCAGUCAAG,-0.0196
18,GGUCACGUCUCAAUCAACUCCUUAGAGGGGGGGAAAACCCCUUUGCCCUCACCAUCAACAGCUCGCAGUCAAG,-0.296
19,GGUCACGUCUCAAUCAACUCUACGCCAGGAGUUUCCUCCUGUAAUCUCAACAGCUCGCAGUCAAG,0.132
20,GGUCACGUCUCAAUCAACUCAAUCUCAGGAGUUUCCUCCUGCAAACUCAACAGCUCGCAGUCAAG,0.122
21,GGUCACGUCUCAAUCAACUCAUUCGCAGGAGUUUCCUCCUGGUUAUUCAACAGCUCGCAGUCAAG,0.0672
22,GGUCACGUCUCAAUCAACUCAUUUUCAGGAGUUUUCUCCUGUGUAUUCAACAGCUCGCAGUCAAG,0.0477
23,GGUCACGUCUCAAUCAACUCUUACGAGGGGGGGAAAACCCCUUUGCCCUCAAAUUCAACAGCUCGCAGUCAAG,0.347
